This is an account of results in publication PMC8892811.

The chains behind the UniProt entries cited, without tags or fusion partners.
UniProt Q9CW03: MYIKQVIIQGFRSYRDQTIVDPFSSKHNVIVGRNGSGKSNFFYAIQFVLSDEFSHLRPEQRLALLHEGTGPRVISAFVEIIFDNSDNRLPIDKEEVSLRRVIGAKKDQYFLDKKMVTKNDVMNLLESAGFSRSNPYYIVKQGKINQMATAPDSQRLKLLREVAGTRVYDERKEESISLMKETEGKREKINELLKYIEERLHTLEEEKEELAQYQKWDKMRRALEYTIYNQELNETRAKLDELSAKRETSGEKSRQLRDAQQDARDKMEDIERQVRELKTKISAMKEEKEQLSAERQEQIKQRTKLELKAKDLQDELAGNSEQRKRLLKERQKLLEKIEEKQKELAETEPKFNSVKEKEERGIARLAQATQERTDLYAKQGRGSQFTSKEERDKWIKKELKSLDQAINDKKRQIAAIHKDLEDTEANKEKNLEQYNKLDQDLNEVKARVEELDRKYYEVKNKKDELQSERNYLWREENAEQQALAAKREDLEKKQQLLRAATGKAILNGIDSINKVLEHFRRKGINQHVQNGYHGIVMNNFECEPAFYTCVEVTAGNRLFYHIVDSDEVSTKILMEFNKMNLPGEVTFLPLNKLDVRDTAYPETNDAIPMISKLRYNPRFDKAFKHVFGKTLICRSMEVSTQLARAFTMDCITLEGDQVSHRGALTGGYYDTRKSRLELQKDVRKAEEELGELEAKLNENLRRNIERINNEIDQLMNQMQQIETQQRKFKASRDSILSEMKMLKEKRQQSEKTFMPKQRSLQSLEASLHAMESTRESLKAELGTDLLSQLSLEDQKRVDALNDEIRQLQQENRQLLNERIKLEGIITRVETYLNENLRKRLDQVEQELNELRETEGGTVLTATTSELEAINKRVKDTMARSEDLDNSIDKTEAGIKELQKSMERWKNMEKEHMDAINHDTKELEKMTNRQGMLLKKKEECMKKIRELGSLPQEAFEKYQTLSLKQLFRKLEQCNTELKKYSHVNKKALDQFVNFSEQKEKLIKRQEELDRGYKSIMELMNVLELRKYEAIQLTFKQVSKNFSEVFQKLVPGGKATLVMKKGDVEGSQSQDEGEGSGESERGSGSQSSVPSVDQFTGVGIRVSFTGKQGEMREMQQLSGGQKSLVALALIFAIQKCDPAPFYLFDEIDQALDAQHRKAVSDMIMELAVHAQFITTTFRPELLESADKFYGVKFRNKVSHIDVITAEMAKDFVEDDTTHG
UniProt Q6ZQK0: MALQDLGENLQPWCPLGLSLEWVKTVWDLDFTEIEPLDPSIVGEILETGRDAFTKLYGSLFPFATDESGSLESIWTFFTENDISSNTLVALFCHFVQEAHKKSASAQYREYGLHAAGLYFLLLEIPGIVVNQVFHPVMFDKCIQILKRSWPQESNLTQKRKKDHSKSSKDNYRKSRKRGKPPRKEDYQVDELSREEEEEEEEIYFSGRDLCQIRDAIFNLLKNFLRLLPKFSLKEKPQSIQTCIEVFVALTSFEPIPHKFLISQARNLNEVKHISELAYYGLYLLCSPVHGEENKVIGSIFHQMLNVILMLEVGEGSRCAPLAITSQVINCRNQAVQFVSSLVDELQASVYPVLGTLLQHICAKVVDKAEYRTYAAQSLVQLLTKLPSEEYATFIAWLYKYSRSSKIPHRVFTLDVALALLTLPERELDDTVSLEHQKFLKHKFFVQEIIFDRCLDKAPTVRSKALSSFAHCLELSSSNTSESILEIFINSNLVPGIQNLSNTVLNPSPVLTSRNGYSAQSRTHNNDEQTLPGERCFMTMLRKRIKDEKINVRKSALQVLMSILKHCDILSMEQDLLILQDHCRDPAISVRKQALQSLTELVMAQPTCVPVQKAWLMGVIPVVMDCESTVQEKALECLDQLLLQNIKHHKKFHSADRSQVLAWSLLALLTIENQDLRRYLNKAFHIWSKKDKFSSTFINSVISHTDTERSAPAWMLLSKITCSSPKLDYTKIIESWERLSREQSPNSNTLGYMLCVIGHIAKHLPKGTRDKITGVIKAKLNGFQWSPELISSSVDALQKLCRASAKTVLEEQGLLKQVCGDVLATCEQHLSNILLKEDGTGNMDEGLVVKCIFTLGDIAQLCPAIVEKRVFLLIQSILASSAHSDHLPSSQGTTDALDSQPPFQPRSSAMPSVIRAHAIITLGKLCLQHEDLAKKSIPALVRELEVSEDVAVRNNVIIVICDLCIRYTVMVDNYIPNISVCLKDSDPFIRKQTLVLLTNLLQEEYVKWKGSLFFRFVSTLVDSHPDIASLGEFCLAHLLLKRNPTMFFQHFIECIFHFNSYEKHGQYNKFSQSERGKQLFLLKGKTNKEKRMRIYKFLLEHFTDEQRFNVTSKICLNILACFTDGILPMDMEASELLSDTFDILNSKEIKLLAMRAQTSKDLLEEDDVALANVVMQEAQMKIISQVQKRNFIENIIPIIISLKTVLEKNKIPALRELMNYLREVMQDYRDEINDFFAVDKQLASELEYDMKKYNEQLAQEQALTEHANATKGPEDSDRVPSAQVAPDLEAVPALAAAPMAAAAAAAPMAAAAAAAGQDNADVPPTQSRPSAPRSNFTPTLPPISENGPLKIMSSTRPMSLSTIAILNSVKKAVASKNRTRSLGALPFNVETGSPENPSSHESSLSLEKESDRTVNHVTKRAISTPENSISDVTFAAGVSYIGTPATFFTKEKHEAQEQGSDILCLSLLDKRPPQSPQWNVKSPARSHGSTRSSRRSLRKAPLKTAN

No constants are given. Whether binding was seen depends on the method and setting. Binding seen in cells or lysates may run through a third protein. Some entries that bind do so weakly or less than the wild type. For some of these results: Sequences can lack the tags named with a protein.

In assay [1] the target is T1, REC8 (mouse (endogenous in J1 ESCs)) (UniProt Q8C5S7).
T1 sequence: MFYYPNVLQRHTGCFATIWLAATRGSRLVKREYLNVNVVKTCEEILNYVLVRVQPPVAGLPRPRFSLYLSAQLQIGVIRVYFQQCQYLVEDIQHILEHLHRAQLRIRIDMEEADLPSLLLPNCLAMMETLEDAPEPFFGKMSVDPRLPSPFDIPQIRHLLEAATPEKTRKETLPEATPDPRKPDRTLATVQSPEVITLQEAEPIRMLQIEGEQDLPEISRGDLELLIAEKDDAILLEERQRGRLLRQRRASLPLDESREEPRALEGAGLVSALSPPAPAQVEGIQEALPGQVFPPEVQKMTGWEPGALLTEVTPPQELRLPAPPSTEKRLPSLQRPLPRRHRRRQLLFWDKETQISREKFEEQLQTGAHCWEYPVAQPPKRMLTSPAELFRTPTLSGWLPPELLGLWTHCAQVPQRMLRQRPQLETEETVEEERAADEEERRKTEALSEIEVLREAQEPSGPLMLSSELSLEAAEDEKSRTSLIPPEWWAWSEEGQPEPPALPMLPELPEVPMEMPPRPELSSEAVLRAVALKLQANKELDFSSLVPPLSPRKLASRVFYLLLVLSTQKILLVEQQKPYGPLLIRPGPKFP
In words: co-IP; whole-cell extracts of ESCs (700 μg lysate; lysis buffer 50 mM Tris-HCl pH 7.6, 250 mM NaCl, 0.05% NP40) incubated with 1 μg anti-cohesin antibody (SMC3, RAD21, REC8, STAG1, STAG2, STAG3) overnight, protein A/G agarose 3 h at 4 °C, western blot. Background: In western blotting, separated proteins are transferred to a membrane and probed.

Assay [2] deals with T2, RAD21 (mouse (endogenous in J1 ESCs)) (UniProt Q61550).
T2 sequence: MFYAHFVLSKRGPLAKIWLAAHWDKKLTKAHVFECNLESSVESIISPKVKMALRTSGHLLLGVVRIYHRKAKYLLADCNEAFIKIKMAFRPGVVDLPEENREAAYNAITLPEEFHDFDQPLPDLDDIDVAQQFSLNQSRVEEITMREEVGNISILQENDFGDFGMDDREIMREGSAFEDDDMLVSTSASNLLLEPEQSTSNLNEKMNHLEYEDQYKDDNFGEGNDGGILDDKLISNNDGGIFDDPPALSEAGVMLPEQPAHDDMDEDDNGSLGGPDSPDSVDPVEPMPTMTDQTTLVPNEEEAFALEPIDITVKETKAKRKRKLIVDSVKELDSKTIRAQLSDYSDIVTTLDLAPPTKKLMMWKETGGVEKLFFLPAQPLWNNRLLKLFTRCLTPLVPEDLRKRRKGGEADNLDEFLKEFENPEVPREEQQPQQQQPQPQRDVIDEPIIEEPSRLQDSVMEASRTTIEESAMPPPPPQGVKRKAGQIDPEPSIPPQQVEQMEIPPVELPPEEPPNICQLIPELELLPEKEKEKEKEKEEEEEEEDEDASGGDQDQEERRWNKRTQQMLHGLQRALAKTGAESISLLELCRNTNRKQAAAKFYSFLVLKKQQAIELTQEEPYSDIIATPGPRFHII
The description is as above.

Assay [3] concerns the target T3, STAG3 (mouse (endogenous in J1 ESCs)) (UniProt O70576).
T3 sequence: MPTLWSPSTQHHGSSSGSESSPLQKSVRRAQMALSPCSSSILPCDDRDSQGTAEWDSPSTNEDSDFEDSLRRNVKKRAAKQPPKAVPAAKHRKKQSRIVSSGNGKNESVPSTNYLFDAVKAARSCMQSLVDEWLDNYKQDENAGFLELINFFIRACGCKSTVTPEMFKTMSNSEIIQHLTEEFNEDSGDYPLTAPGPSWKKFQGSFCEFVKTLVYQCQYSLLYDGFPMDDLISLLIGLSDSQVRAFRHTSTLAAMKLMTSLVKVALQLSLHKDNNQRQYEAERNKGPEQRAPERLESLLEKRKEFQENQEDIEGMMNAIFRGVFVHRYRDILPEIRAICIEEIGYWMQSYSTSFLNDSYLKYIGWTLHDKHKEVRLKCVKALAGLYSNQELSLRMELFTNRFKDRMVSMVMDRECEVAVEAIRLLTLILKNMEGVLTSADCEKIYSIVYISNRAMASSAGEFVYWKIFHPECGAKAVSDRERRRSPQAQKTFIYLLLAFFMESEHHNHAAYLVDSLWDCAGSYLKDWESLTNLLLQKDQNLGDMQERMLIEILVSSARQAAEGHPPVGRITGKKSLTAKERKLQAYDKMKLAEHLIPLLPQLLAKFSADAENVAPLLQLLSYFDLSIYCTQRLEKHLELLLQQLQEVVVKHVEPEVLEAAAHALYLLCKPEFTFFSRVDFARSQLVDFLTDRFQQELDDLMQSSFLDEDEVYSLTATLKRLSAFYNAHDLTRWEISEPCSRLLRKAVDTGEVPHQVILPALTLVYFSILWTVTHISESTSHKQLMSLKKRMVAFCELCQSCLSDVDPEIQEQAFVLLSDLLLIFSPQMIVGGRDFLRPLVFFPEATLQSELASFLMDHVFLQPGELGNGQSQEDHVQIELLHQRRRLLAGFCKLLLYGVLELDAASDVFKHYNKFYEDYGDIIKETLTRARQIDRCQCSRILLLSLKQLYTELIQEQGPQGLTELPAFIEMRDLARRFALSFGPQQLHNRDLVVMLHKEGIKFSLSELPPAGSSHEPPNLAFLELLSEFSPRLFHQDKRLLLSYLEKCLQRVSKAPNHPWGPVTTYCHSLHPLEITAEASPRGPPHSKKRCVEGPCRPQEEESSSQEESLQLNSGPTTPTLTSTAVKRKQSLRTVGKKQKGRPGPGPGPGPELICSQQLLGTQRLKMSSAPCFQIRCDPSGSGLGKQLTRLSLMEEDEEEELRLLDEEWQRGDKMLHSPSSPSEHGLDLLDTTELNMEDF
The assay is described as above.

Assay [4] deals with T4, retinoblastoma-associated protein (RB) (mouse (endogenous in J1 ESCs)) (UniProt P13405).
T4 sequence: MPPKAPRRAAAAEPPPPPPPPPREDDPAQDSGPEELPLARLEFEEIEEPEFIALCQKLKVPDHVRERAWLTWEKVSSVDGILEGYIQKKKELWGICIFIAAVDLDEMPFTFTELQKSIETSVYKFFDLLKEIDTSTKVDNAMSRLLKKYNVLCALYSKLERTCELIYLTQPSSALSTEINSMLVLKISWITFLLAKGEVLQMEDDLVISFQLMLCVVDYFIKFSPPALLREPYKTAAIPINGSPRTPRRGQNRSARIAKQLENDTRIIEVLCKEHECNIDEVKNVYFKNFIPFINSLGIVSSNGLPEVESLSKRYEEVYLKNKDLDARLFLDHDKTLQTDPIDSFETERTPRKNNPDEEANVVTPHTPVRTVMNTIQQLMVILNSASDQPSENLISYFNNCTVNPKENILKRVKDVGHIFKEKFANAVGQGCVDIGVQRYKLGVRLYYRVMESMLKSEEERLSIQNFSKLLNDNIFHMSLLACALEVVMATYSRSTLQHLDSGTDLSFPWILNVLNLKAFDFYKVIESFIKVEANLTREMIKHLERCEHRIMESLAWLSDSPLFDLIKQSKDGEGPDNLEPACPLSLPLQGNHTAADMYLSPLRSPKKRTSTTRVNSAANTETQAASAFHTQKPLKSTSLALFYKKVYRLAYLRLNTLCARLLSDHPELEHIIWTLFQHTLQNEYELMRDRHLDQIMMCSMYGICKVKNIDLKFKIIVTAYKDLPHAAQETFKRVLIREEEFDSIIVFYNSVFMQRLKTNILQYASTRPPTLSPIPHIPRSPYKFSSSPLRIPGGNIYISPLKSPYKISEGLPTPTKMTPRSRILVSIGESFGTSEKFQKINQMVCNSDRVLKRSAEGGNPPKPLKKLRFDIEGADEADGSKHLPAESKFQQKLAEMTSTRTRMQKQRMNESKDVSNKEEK
In words: co-IP; immunoprecipitation of RB from ESC lysates followed by western blotting of CAP-D3; cells treated with siCtrl or siRNA against cohesin components (knockdown increased the interaction).

Turning to SMC3 (from UniProt Q9CW03 1-1217), the binding result in assay [1], in assay [2] and in assay [3] was “binds” throughout.

“condensin II complex subunit D3 (CAP-D3) (from UniProt Q6ZQK0 1-1506)”: the binding entry in assay [4] is “binds”.
